The source of these data is PubChem BioAssay (NCI).

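48-hour exposure; five concentrations; linearly interpolated endpoints. The concentration for 50% growth inhibition is given as GI50. TGI: concentration producing complete growth inhibition.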

This assay deals with NCI-H322M lung. Kind of assay: NCI tumour cell line growth inhibition, 48 h.

In the case of `COc1cc2c3c(n(CCCN4CCOCC4)c(=O)c2cc1OC)-c1nc2c(cc1C3=O)OCO2`, the GI50 is 5.69 µM and the TGI is above 100 µM.
